# Assay results: PubChem BioAssay AID624296 (National Center for Advancing Translational Sciences (NCATS), 2012)
# Out of some 350,000 compounds screened, about 9,900 (2.8%) were called active. The inconclusive results got no clear call from the source; some entries with a clear call stand among them for comparison. Calls come from the whole dose curve; as a rule, active = well fitted activation curve with a large enough effect; inconclusive = small, poorly fitted or top-dose-only effect; inactive = no such curve, though single readings can be large or run the other way. Potencies of inconclusive entries are left out as doubtful fits.
# Test: A quantitative high throughput screen for small molecules that induce DNA re-replication in MCF 10a normal breast cells. For activity, positive = re-replication: % of control where 0% means no effect. Note: nearly all actives have a fitted effect of over 50% in size.
# Settings: MCF 10A DNA re-replication, Hoechst nuclear intensity, 48 h; activity, positive = re-replication: at 46.1 µM (top of the series)
# Potency is the fitted concentration of half-maximal effect; tags give direction and shape of the fitted curve.
SMILES,Potency,"activity, positive = re-replication"
N#Cc1c(NCCO)nc(NCc2ccccc2)c2c1CCN(Cc1ccccc1)C2,"inconclusive [activator, single point]",–
O=C(c1cc2ccccc2oc1=O)N1CCCCCCC1,"inconclusive [activator, single point]",–
CCCCCNc1nc2sc3c(c2c(=O)n1-c1cccc(Cl)c1)CCN(C)C3,"inconclusive [activator, single point]",–
O=C(Oc1ccc2ccc(O)cc2c1)C1CCCCC1,"inconclusive [activator, single point]",–
CCCCNC(=O)c1ccc(NS(=O)(=O)c2ccccc2)cc1,–,inactive: -5.52%
CCN(CC)S(=O)(=O)c1ccc(C(O)=C(C#N)c2nc3ccccc3n2C)cc1,"inconclusive [activator, single point]",–
O=C(Nc1cccc(-c2cn3ccccc3n2)c1)C1CC1,"inconclusive [activator, partial curve, poor fit]",–
Cc1ccc(S(=O)(=O)N(C)CC(=O)N2CCCC2)cc1,–,inactive: 4.47%
O=C1CCC(C(=O)N2CCOCC2)CN1Cc1ccc(Cl)cc1 (stereo unspecified),–,inactive: -3%
CN(C(=O)COC(=O)CNC(=O)c1sc2ccccc2c1Cl)C1CCS(=O)(=O)C1 (stereo unspecified),–,inactive: 5.05%
Cc1ccc(CN2C(=O)N/C(=C\c3ccc(N4CCOCC4)cc3)C2=O)cc1,–,inactive: 15.5%
CCOC(=O)C1=C(O)c2ccccc2C(=O)/C1=C\c1ccc(C)cc1,active: 20.6 µM,–
Cc1cc(Cl)ccc1Oc1nc(-c2ccc(F)cc2)ccc1C#N,"inconclusive [activator, single point]",–
Cc1c(O)nc(SCC(=O)Nc2ccc3c4c(cccc24)CC3)n(-c2ccc(F)cc2)c1=O,"inconclusive [activator, full curve, poor fit]",–
Cc1nnc(NC(=O)CS(=O)(=O)Cc2ccccc2)s1,"inconclusive [activator, single point]",–
COc1cc2c(cc1OC)CN(C(=O)c1ccc(S(=O)(=O)N3CCCC3)cc1)CC2,–,inactive: -3.08%
COc1ccc(-c2cc3ccccc3n2CC(O)CNC(CO)(CO)CO)cc1 (stereo unspecified),"inconclusive [activator, partial curve, poor fit]",–
CC(CC1C(C#N)=C(N)SC(N)=C1C#N)c1ccccc1 (stereo unspecified),"inconclusive [activator, single point]",–
CCCCC(=O)NC(c1ccccc1)c1ccc2cccnc2c1O (stereo unspecified),"inconclusive [activator, full curve]",–
CN(C)C(=O)c1ccc(NC(=O)COC(=O)c2cc3c(s2)CCCCC3)cc1,"inconclusive [activator, partial curve, poor fit]",–
O=C(Nc1ccccc1F)c1ccc([N+](=O)[O-])s1,"inconclusive [activator, single point]",–
O=C(Nc1cccc(F)c1)c1coc(=O)c(Br)c1,"inconclusive [activator, single point]",–
Clc1ccc(Nc2ccc(NCc3ccccc3)nn2)cc1,"inconclusive [activator, single point]",–
CCC(C)(C)NC(=S)Nc1ccccc1C,"inconclusive [activator, partial curve, poor fit]",–

SMILES,Potency,"activity, positive = re-replication"
Cc1cc(OCC(O)CN2CCc3ccccc3C2)ccc1Cl (stereo unspecified),–,inactive: 19%
Cc1coc2c1C(=O)C(=O)c1c-2ccc2c1CCCC2(C)C,"inconclusive [activator, single point]",–
N#Cc1ccc(Cl)cc1NC(=O)COC(=O)c1cccc(S(=O)(=O)N2CCOCC2)c1,–,inactive: -4.96%
Nc1nc(-c2ccccc2)nc(-c2ccccc2O)n1,"inconclusive [activator, single point]",–
O=C(CSc1nc2ccc(Nc3nc(N4CCOCC4)nc(N4CCOCC4)n3)cc2s1)NCc1ccco1,"inconclusive [activator, single point]",–
COCc1cc(Sc2ccc(Br)cc2)nc(-c2ccccc2)n1,"inconclusive [activator, single point]",–
O=C(CSc1nnc(SCc2ccc(Cl)cc2)s1)N/N=C/c1c[nH]c2ccccc12,"inconclusive [activator, partial curve, poor fit]",–
CC(C)N(C(=O)[C@H]1C[C@H](CC(=O)NCCCN(C)C)C(=O)N2CCc3c([nH]c4ccc(Cl)cc34)[C@]12C)C(C)C,"inconclusive [activator, partial curve, poor fit]",–
Cc1ccc(CC2(OCCN(C)C)CCC(C(C)(C)C)CC2)cc1 (stereo unspecified),"inconclusive [activator, single point]",–
Cc1cccc(C)c1NC(=O)COC(=O)c1cc(-c2cccnc2)nc2ccccc12,active: 11.6 µM,–
COc1ccc(CNC(=O)C[C@H]2C[C@H](C(=O)N3CCOCC3)[C@@]3(CCC4CCCC4)c4[nH]c5ccc(Cl)cc5c4CCN3C2=O)cc1OC,"inconclusive [activator, single point]",–
CCOC(=O)c1nnn(CC(=O)Nc2cc(F)ccc2F)c1C(=O)OCC,"inconclusive [activator, single point]",–
O=[N+]([O-])c1ccc(CN2CCN(Cc3c[nH]c4ccccc34)CC2)cc1,–,inactive: 8.76%
Cc1cc(C)n(Cc2ccc(F)cc2)c(=O)c1C#N,–,inactive: -3.68%
O=C(CCCc1nc2ccccc2s1)NCc1ccc(F)cc1,–,inactive: 17.2%
OCCN=c1cc(-c2ccccc2)oc2ccc(Cl)cc12,"inconclusive [activator, single point]",–
CCOc1ccc2c(c1)-c1c(ssc1=S)C(C)(C)N2C(=O)c1ccco1,active: 4.11 µM,–
CC1(C)Cc2c(cnn2-c2ccc(F)cc2)C(NC(=O)c2ccco2)C1 (stereo unspecified),–,inactive: 1.96%
CCOc1ccc(-c2csc(NNC3=NCCCCC3)n2)cc1,"inconclusive [activator, single point]",–
Cc1csc(NC(=O)COCC(=O)O)c1-c1nc2ccccc2s1,"inconclusive [activator, single point]",–
Cc1ccc(C(=O)Nc2cc(C(F)(F)F)ccc2N2CCCCC2)cc1[N+](=O)[O-],"inconclusive [activator, partial curve, poor fit]",–
O=C(Nc1ccccc1)C1=C[C@H](c2coc3ccccc3c2=O)C[C@H](OCCCCO)O1,–,inactive: -3.68%
Cc1ccc(C(=O)NC(NC(=O)c2ccc(C)cc2)C(Cl)Cl)cc1,"inconclusive [activator, single point]",–
CCNC(=O)C(=O)N/N=C/c1cc([N+](=O)[O-])ccc1O,"inconclusive [activator, partial curve, poor fit]",–

SMILES,Potency,"activity, positive = re-replication"
Cc1ncoc1C(=O)N1CCCC(C(=O)c2ccc(-c3ccccc3)cc2)C1 (stereo unspecified),–,inactive: -0.0939%
O=C1Cc2c([nH]c3ccc(Br)cc23)-c2ccccc2N1,active: 4.11 µM,–
CC(C)=CC(=O)O[C@@H]1Cc2cc3ccc(=O)oc3cc2OC1(C)C,–,inactive: 24.4%
Cc1ccc(N2CC(C(=O)Nc3nnc(C)s3)CC2=O)cc1 (stereo unspecified),"inconclusive [activator, single point]",–
COCCNC(=O)c1cccc(OC2CCN(C(C)COc3ccccc3)CC2)c1 (stereo unspecified),active: 1.84 µM,–
CCC(CC)C(=O)NCc1ccccc1Cl,–,inactive: 0.411%
Cc1cc(C)cc(N=c2c([N+](=O)[O-])nn(-c3ccc4c(c3)OCCO4)n2O)c1,–,inactive: 4.82%
CCS(=O)(=O)N1CCCC(C(=O)NCCc2ccc(C)cc2)C1 (stereo unspecified),–,inactive: -66.9%
Cc1nc(C(=O)NNC(=O)c2ccccc2)c(C(F)(F)F)o1,–,inactive: 2.46%
Cc1noc(C)c1CSCC(=O)Nc1ccccc1N1CCCC1,"inconclusive [activator, partial curve, poor fit]",–
COc1ccccc1C(=O)NCCOc1ccc(C)c(C)c1,"inconclusive [activator, single point]",–
O=C(NC1CC2CCCC(C1)N2S(=O)(=O)c1ccccc1)C1CCCCC1 (stereo unspecified),–,inactive: 10.9%
CCN1C(=O)C(=O)N(CC(=O)c2cc(C)n(C3CC3)c2C)C1=O,–,inactive: 3.74%
COc1c(O)cc2oc(-c3ccc(O)cc3)cc(=O)c2c1O,–,inactive: -11.1%
O=C(Nc1ccccc1C(=O)O)/C(=C/c1ccc(Cl)cc1Cl)NC(=O)c1ccco1,"inconclusive [activator, partial curve, poor fit]",–
CNCCCC12CCC(c3ccccc31)c1ccccc12,"inconclusive [activator, full curve, poor fit]",–
O=C1C(Cl)=C(N2CCCCC2)C(=O)N1Cc1ccccc1,"inconclusive [activator, single point]",–
CCN(CC)C(=O)C(Oc1ccc(S(=O)(=O)N2CCCC2)cc1[N+](=O)[O-])c1ccccc1 (stereo unspecified),"inconclusive [activator, single point]",–
Cc1ccc(C(=O)/C=C/c2ccc3c(c2)OCCO3)c(O)c1,"inconclusive [activator, single point]",–
CCOC(=O)c1cc(C)nn1-c1nc(Cl)cc(OC)n1,–,inactive: -2.64%
NC(=O)Cn1nnc(-c2ccc(NC(=O)c3ccc(F)cc3)cc2)n1,"inconclusive [activator, partial curve, poor fit]",–
CCCCCCSc1ccc(-c2nc3ccc(C)cn3c2NCc2ccccc2)cc1OC,–,inactive: 83.7%
CCCOc1ccc(C(=O)Nc2ccc(CN3CCOCC3)cc2)cc1,"inconclusive [activator, partial curve, poor fit]",–
